Sequences with one replicate were seen in a single cluster, so their values are uncertain.
system: ATP; assay: switch fluorescence ratio, 500 uM ATP over buffer (Cy3 cluster intensity, sum of 5 cycles each) (fold (ratio)); higher = stronger signal-on switching upon ATP binding; sequences stand for … in TCGTCGGCAGCGTCAGATGTGTATAAGAGACAGTTTTTTTTTTTTTTTTTTTTTTTTT…TC; settings: aptamer strand: ATP DNA aptamer (quencher-CACCTGGGGGAGTATTGCGGAGGAAGG + anchor), 100 nM annealed; ATP concentration: 500 uM; one replicate
Outline: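 The fluorescence ratio divides summed target-cycle Cy3 intensity by summed buffer-cycle Cy3 intensity for each cluster and is averaged per switch-domain sequence. Cy3-labelled switching-strand clusters on a modified Illumina MiSeq flow-cell were annealed to 100 nM quencher-labelled ATP aptamer, then imaged in selection buffer and again after 15 min with 500 uM ATP at 22 °C. Five such cycles were run, with NaOH stripping and re-annealing between them, and clusters outside 100-1000 RFU were excluded.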
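Note: ATP exposure 15 min at 22 °C before imaging.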

Sequence	switch fluorescence ratio
ACGTTTTCAT	1.02
ACGTTTTGGT	1.17
ACTAAAGTCT	1.07
ACTAAATCCC	1.02
ACTAAGCGGC	1.08
ACTAAGGTAC	1.12
ACTAATCTCT	1.06
ACTAATTTGG	1.02
ACTACACTGT	1.33
ACTACAGGG	1.09
ACTACATTGC	1.14
ACTACCCTCT	1.13
ACTACCGCCT	1.24
ACTACGTCAG	1.07
ACTAGACCAG	1.05
ACTAGCACGG	1.33
ACTAGCCCT	1.04
ACTAGGAGTA	0.967
ACTAGGAT	0.996
ACTAGGCATT	0.929
ACTAGGGAGG	1.04
ACTAGGGCAT	1.03
ACTAGGGCTT	1.02
ACTAGGTACC	1.06
ACTAGGTACG	1.05

Sequence	switch fluorescence ratio
ACTAGTGGG	1
ACTATACGTC	1.56
ACTATAGCTT	1.05
ACTATATATT	1.06
ACTATCGGAC	1.11
ACTATCGTCC	1.03
ACTATCTCAT	0.973
ACTATGAATA	0.993
ACTATGCTAG	0.954
ACTATTATGG	1.02
ACTATTTCAT	1.07
ACTCAACTTG	1.14
ACTCAAGTAG	1.01
ACTCACCGGT	1.42
ACTCAGTACC	1.1
ACTCATCGTG	1.01
ACTCATGCGG	1.16
ACTCATGTTC	1.05
ACTCCAACG	1.34
ACTCCACGAT	4.2
ACTCCTACTT	1.14
ACTCGAAATG	1.17
ACTCGAGACG	1.07
ACTCGCAGCA	1.57
ACTCGCATTT	1.52

Sequence	switch fluorescence ratio
ACTCGCGTTC	1.81
ACTCGGACAG	1.03
ACTCGGACTC	1.12
ACTCGGCCGA	1.05
ACTCGTAAGA	1.08
ACTCGTCTAT	1.02
ACTCGTTGAG	1
ACTCTAGTCT	1.02
ACTCTGCCCT	1.36
ACTCTGTCTA	1.26
ACTCTTACGA	1.15
ACTCTTCCG	1.22
ACTCTTTACC	1.15
ACTCTTTGAG	0.997
ACTGAAATCC	1.08
ACTGACATTC	1.15
ACTGACCGAA	1.26
ACTGAGATAG	1.02
ACTGAGGAA	1.01
ACTGATGTC	1
ACTGATTTGG	1.01
ACTGCATAAC	1.62
ACTGCCCTTT	1.03
ACTGCCGCCA	1.06
ACTGCCTCGT	1.12

Sequence	switch fluorescence ratio
ACTGGAGGCA	0.996
ACTGGAGTAT	0.987
ACTGGCAGAT	0.985
ACTGGCCCAC	1.1
ACTGGGTGTG	0.989
ACTGGGTTAG	1
ACTGGGTTCT	0.984
ACTGGTCGGG	1
ACTGGTTAAA	0.981
ACTGTAATAA	1.15
ACTGTATATG	1.19
ACTGTATGAC	1.11
ACTGTCCG	1.03
ACTGTCTATT	1.01
ACTGTGACA	1.3
ACTGTGAGTA	1.06
ACTGTGATTC	1.05
ACTGTGTTTC	0.978
ACTGTTTCGG	1.01
ACTGTTTCTT	1.01
ACTTAACGG	1.25
ACTTAACTTT	1.08
ACTTAGGAAC	0.992
ACTTAGTATG	0.999
ACTTAGTGCG	1.03
